# Measurements as given in the supplement of paper PMC8728848.
# The list shows a part of the results.
# B1: GS13846A-bth-444-19-444 (Bacteroides thetaiotaomicron) (protein)
# chain: SCENEFDVSDKADSLISVTVNTLNNQAAYNVGETAQAELWIQRGGLKDASGKVQFVVDPLLLDSLNQEDKTNYELLPENCYEMTNTEFTVDKNELCGYITYHPEKILALSAYNETKYVLPLRLISNDLAINPARNTSFLAFTILEPIVHISNAGVYNINPDLTSTMDIQIGVPFTNKWDILCNLTEDLSLIDEYNQINKVNFTLLPENAYTAPESVTLQEGVSQITASYQLKNNLVPGNYILPIKIGSITASQGGVPNNSLVIDEESNVLFCIVKEGNKINKSGWEVIECSSEHAGNEATYMIDDNESTYWHCKFKNEAGSSVPPFHFIIDMKKEITIAQIDLLNRGDGAANNIKWVEFYASNNNSEWDKIGAGDFNDEGTRATFRYYVKSTKARYLKLIIPEGYGNNCPPAAIRELTVYGLEGNN
# Columns and labels:
# Test in all cases: glycan array binding signal (z-score within array); higher = stronger binding
# Conditions in all cases: glycan notation: IUPAC condensed, linker removed
# [1] = target: Neu5Ac(a2-6)Gal(b1-3)GlcNAc(b1-3)[Gal(b1-4)GlcNAc(b1-6)]Gal(b1-4)Glc
# Method in brief: (§1)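 Negative Z-scores can be read as non-binding. The Z-score is calculated within each array and then averaged across arrays of one protein sequence at different concentrations or buffers and across linkers. Arrays, 3228 in all, were curated from the Consortium for Functional Glycomics database and kept only where the protein sequence was available.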
# [2] = target: Neu5Ac(a2-6)Gal(b1-4)Glc
# Method in brief: as §1
# [3] = target: Neu5Ac(a2-6)Gal(b1-4)GlcNAc
# Method in brief: as §1
# [4] = target: Neu5Ac(a2-6)Gal(b1-4)GlcNAc(b1-2)Man
# Method in brief: as §1
# [5] = target: Neu5Ac(a2-6)Gal(b1-4)GlcNAc(b1-2)Man(a1-3)Man(b1-4)GlcNAc(b1-4)GlcNAc
# Method in brief: as §1
# [6] = target: Neu5Ac(a2-6)Gal(b1-4)GlcNAc(b1-2)Man(a1-3)[Gal(b1-4)GlcNAc(b1-2)Man(a1-6)]Man(b1-4)GlcNAc(b1-4)GlcNAc
# Method in brief: as §1
# [7] = target: Neu5Ac(a2-6)Gal(b1-4)GlcNAc(b1-2)Man(a1-3)[GlcNAc(b1-2)Man(a1-6)]Man(b1-4)GlcNAc(b1-4)GlcNAc
# Method in brief: as §1
# [8] = target: Neu5Ac(a2-6)Gal(b1-4)GlcNAc(b1-2)Man(a1-3)[GlcNAc(b1-4)][Neu5Ac(a2-6)Gal(b1-4)GlcNAc(b1-2)Man(a1-6)]Man(b1-4)GlcNAc(b1-4)GlcNAc
# Method in brief: as §1
# [9] = target: Neu5Ac(a2-6)Gal(b1-4)GlcNAc(b1-2)Man(a1-3)[Man(a1-6)]Man(b1-4)GlcNAc(b1-4)GlcNAc
# Method in brief: as §1
# [10] = target: Neu5Ac(a2-6)Gal(b1-4)GlcNAc(b1-2)Man(a1-3)[Neu5Ac(a2-3)Gal(b1-4)GlcNAc(b1-2)Man(a1-6)]Man(b1-4)GlcNAc(b1-4)GlcNAc
# Method in brief: as §1
# [11] = target: Neu5Ac(a2-6)Gal(b1-4)GlcNAc(b1-2)Man(a1-3)[Neu5Ac(a2-6)Gal(b1-4)GlcNAc(b1-2)Man(a1-6)]Man(b1-4)GlcNAc(b1-4)GlcNAc
# Method in brief: as §1
# [12] = target: Neu5Ac(a2-6)Gal(b1-4)GlcNAc(b1-2)Man(a1-3)[Neu5Ac(a2-6)Gal(b1-4)GlcNAc(b1-2)Man(a1-6)]Man(b1-4)GlcNAc(b1-4)[Fuc(a1-6)]GlcNAc
# Method in brief: as §1
# [13] = target: Neu5Ac(a2-6)Gal(b1-4)GlcNAc(b1-2)Man(a1-6)Man(b1-4)GlcNAc(b1-4)GlcNAc
# Method in brief: as §1
# [14] = target: Neu5Ac(a2-6)Gal(b1-4)GlcNAc(b1-2)Man(a1-6)[Gal(b1-4)GlcNAc(b1-2)Man(a1-3)]Man(b1-4)GlcNAc(b1-4)GlcNAc
# Method in brief: as §1
# [15] = target: Neu5Ac(a2-6)Gal(b1-4)GlcNAc(b1-2)Man(a1-6)[GlcNAc(b1-2)Man(a1-3)]Man(b1-4)GlcNAc(b1-4)GlcNAc
# Method in brief: as §1
# [16] = target: Neu5Ac(a2-6)Gal(b1-4)GlcNAc(b1-2)Man(a1-6)[Man(a1-3)]Man(b1-4)GlcNAc(b1-4)GlcNAc
# Method in brief: as §1
# [17] = target: Neu5Ac(a2-6)Gal(b1-4)GlcNAc(b1-2)[Neu5Ac(a2-6)Gal(b1-4)GlcNAc(b1-4)]Man(a1-3)[GlcNAc(b1-4)][Neu5Ac(a2-6)Gal(b1-4)GlcNAc(b1-2)[Neu5Ac(a2-6)Gal(b1-4)GlcNAc(b1-6)]Man(a1-6)]Man(b1-4)GlcNAc(b1-4)GlcNAc
# Method in brief: as §1
# [18] = target: Neu5Ac(a2-6)Gal(b1-4)GlcNAc(b1-2)[Neu5Ac(a2-6)Gal(b1-4)GlcNAc(b1-4)]Man(a1-3)[GlcNAc(b1-4)][Neu5Ac(a2-6)Gal(b1-4)GlcNAc(b1-4)Man(a1-6)]Man(b1-4)GlcNAc(b1-4)GlcNAc
# Method in brief: as §1
# [19] = target: Neu5Ac(a2-6)Gal(b1-4)GlcNAc(b1-2)[Neu5Ac(a2-6)Gal(b1-4)GlcNAc(b1-6)]Man(a1-6)[Neu5Ac(a2-6)Gal(b1-4)GlcNAc(b1-2)Man(a1-3)][GlcNAc(b1-4)]Man(b1-4)GlcNAc(b1-4)GlcNAc
# Method in brief: as §1
# [20] = target: Neu5Ac(a2-6)Gal(b1-4)GlcNAc(b1-3)Gal(b1-3)GlcNAc
# Method in brief: as §1
# [21] = target: Neu5Ac(a2-6)Gal(b1-4)GlcNAc(b1-3)Gal(b1-4)GlcNAc
# Method in brief: as §1
# [22] = target: Neu5Ac(a2-6)Gal(b1-4)GlcNAc(b1-3)Gal(b1-4)GlcNAc(b1-2)Man(a1-3)[Neu5Ac(a2-6)Gal(b1-4)GlcNAc(b1-3)Gal(b1-4)GlcNAc(b1-2)Man(a1-6)]GalNAc
# Method in brief: as §1
# [23] = target: Neu5Ac(a2-6)Gal(b1-4)GlcNAc(b1-3)Gal(b1-4)GlcNAc(b1-3)Gal(b1-4)GlcNAc
# Method in brief: as §1
# [24] = target: Neu5Ac(a2-6)Gal(b1-4)GlcNAc(b1-3)Gal(b1-4)GlcNAc(b1-3)Gal(b1-4)GlcNAc(b1-2)Man(a1-3)[Neu5Ac(a2-6)Gal(b1-4)GlcNAc(b1-3)Gal(b1-4)GlcNAc(b1-3)Gal(b1-4)GlcNAc(b1-2)Man(a1-6)]GalNAc
# Method in brief: as §1
# [25] = target: Neu5Ac(a2-6)Gal(b1-4)GlcNAc(b1-3)Gal(b1-4)GlcNAc(b1-3)GalNAc
# Method in brief: as §1
# [26] = target: Neu5Ac(a2-6)Gal(b1-4)GlcNAc(b1-3)Gal(b1-4)GlcNAc(b1-3)[Neu5Ac(a2-6)Gal(b1-4)GlcNAc(b1-3)Gal(b1-4)GlcNAc(b1-6)]GalNAc
# Method in brief: as §1
# [27] = target: Neu5Ac(a2-6)Gal(b1-4)GlcNAc(b1-3)Gal(b1-4)GlcNAc(b1-6)[Gal(b1-3)]GalNAc
# Method in brief: as §1
# [28] = target: Neu5Ac(a2-6)Gal(b1-4)GlcNAc(b1-3)Gal(b1-4)[Fuc(a1-3)]GlcNAc(b1-3)Gal(b1-4)[Fuc(a1-3)]GlcNAc
# Method in brief: as §1
# [29] = target: Neu5Ac(a2-6)Gal(b1-4)GlcNAc(b1-3)GalNAc
# Method in brief: as §1
# [30] = target: Neu5Ac(a2-6)Gal(b1-4)GlcNAc(b1-3)[Neu5Ac(a2-6)Gal(b1-4)GlcNAc(b1-6)]GalNAc
# Method in brief: as §1
# [31] = target: Neu5Ac(a2-6)Gal(b1-4)GlcNAc(b1-6)GalNAc
# Method in brief: as §1
# [32] = target: Neu5Ac(a2-6)Gal(b1-4)GlcNAc(b1-6)[Gal(b1-3)GlcNAc(b1-3)]Gal(b1-4)Glc
# Method in brief: as §1
# [33] = target: Neu5Ac(a2-6)Gal(b1-4)GlcNAc(b1-6)[Gal(b1-3)]GalNAc
# Method in brief: as §1
# [34] = target: Neu5Ac(a2-6)Gal(b1-4)GlcNAc6S
# Method in brief: as §1
# [35] = target: Neu5Ac(a2-6)GalNAc
# Method in brief: as §1
# [36] = target: Neu5Ac(a2-6)GalNAc(b1-4)GlcNAc
# Method in brief: as §1
# [37] = target: Neu5Ac(a2-6)GalNAc(b1-4)GlcNAc6S
# Method in brief: as §1
# [38] = target: Neu5Ac(a2-6)GlcNAc(b1-4)GlcNAc
# Method in brief: as §1
binder,measurement,setting,value
B1,glycan array binding signal (z-score),[1],-0.414
same,glycan array binding signal (z-score),[2],-0.183
same,glycan array binding signal (z-score),[3],-0.405
same,glycan array binding signal (z-score),[4],-0.309
same,glycan array binding signal (z-score),[5],-0.287
same,glycan array binding signal (z-score),[6],-0.151
same,glycan array binding signal (z-score),[7],-0.256
same,glycan array binding signal (z-score),[8],-0.297
same,glycan array binding signal (z-score),[9],-0.026
same,glycan array binding signal (z-score),[10],-0.204
same,glycan array binding signal (z-score),[11],-0.224
same,glycan array binding signal (z-score),[12],0.228
same,glycan array binding signal (z-score),[13],-0.106
same,glycan array binding signal (z-score),[14],-0.298
same,glycan array binding signal (z-score),[15],-0.112
same,glycan array binding signal (z-score),[16],-0.336
same,glycan array binding signal (z-score),[17],-0.249
same,glycan array binding signal (z-score),[18],0.032
same,glycan array binding signal (z-score),[19],0.02
same,glycan array binding signal (z-score),[20],-0.204
same,glycan array binding signal (z-score),[21],-0.067
same,glycan array binding signal (z-score),[22],-0.321
same,glycan array binding signal (z-score),[23],-0.099
same,glycan array binding signal (z-score),[24],0.79
same,glycan array binding signal (z-score),[25],0.043
same,glycan array binding signal (z-score),[26],0.1
same,glycan array binding signal (z-score),[27],-0.239
same,glycan array binding signal (z-score),[28],-0.235
same,glycan array binding signal (z-score),[29],0.707
same,glycan array binding signal (z-score),[30],-0.33
same,glycan array binding signal (z-score),[31],-0.311
same,glycan array binding signal (z-score),[32],-0.293
same,glycan array binding signal (z-score),[33],1.86
same,glycan array binding signal (z-score),[34],-0.409
same,glycan array binding signal (z-score),[35],-0.207
same,glycan array binding signal (z-score),[36],-0.289
same,glycan array binding signal (z-score),[37],-0.138
same,glycan array binding signal (z-score),[38],0.027
